From the supplement of paper PMC10338343
± gives the standard deviation. This is a selection; strong and weak results do not stand in their true shares.

Test system: MIWI (PIWIL1) piRISC loaded with L1MC piRNA (30 nt)
Test: pre-steady-state target cleavage rate (min^-1); MIWI and MILI are mouse PIWI proteins and EfPiwi is from a freshwater sponge; tags in brackets are library labels; higher = faster piRNA-guided slicing of the target
Conditions: guide: L1MC piRNA 5'p-UAACUAAAUACUAUGCAAGCUGUAGGUCCU; auxiliary factor: 500 nM mouse GTSF1
How it was run: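 With or without 500 nM GTSF1 partner protein, 1 nM active affinity-purified piRISC carrying one synthetic guide was mixed with 0.1 nM transcribed, DNA-blocked target RNA library in HEPES–potassium acetate buffer at 33 °C for 0–8 or 0–960 min. Uncleaved targets were sequenced and normalised to depth and to weakly complementary targets, three trials were pooled, and k3 was capped at 0.0001 min^-1. The pre-steady-state cleavage rate came from a burst-and-steady-state fit.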

Sequence | pre-steady-state target cleavage rate
UCCUGGAACGAGCUUGCAUAGUAUUUAGUUA | 0.65 ± 0.068
UGGACCUUCAGCUUGCAUAGUAUUUUCAAA | 0.217 ± 0.032
UGGACCUACAGCUUGCAUAGUAUAUACUUA | 0.104 ± 0.017
UGGACCUACAGCUUCGCAUAGUAUUUAGUUA | 1.43 ± 0.1
UCCUGGUACAGCUUGCAUAGUAUUUAGAAA | 0.262 ± 0.033
UCCUGCUACUAGCUUGCAUAGUAUUUAGUUA | 0.638 ± 0.045
AGGACCUACAGCUUGCAUAGAAUUUAGAAA | 0.378 ± 0.053
AGGACCAACAGCUUGCAUAGUAUUUUGUUA | 0.896 ± 0.073
UCCUGGAUGUCCUUGCAUAGUAUUUAAUUA | 0.051 ± 0.0096
UCCUGGAUGUCCUUGCAUAGUAUUUAAGUUA | 0.0513 ± 0.0091
AGGACCUAGAGCUUGCAUAGUUUUUAGUUA | 0.343 ± 0.023
UGGAGCUACAGCUUGCAUAGAAUUUAGUUA | 0.432 ± 0.023
UCGACCUACAGCUUGCAUAGUAUAUAGUUA | 1.03 ± 0.051
UCCUCCUACAGCUUGCAUAGUAUUUAAGUUA | 0.596 ± 0.031
UCCUGGAUGUGCUUGCAUAGUAUUUAAGUUA | 0.29 ± 0.022
AGGACCUACAGCUUGCAUAGUGAUUUAGUUA | 0.127 ± 0.023
UGGACCUACUGCUUGCAUAGUAUUUAGUUA | 1.46 ± 0.073
UCCACCUACAGGUUGCAUAGUAUUUUGUUA | 0.894 ± 0.12
UCCUGGUUCAGGUUGCAUAGUAUUUAGUUA | 0.711 ± 0.051
UCCUGGAACACCUUGCAUACUAUUUAGUUA | 0.131 ± 0.021

Sequence | pre-steady-state target cleavage rate
UCCACCUACAAGCUUGCAUAGUAUUUAGUUA | 0.715 ± 0.031
UCGACCUACAGCUUGCAUAGUAUUUACAAA | 0.488 ± 0.053
UCCUCCUACACCUUGCAAAGUAUUUAGUUA | 0.831 ± 0.043
UCCUGGAACAGCUUGCGAUAGUAUUUAGUUA | 0.0191 ± 0.0062
UCCUGCUACACCUUGCAUAGUAUUUAGAAA | 0.395 ± 0.066
UCCUGGAUGAGCUUGCAUAGUAUUUAGUUC [g2:g21:cont:t1C] | 0.441 ± 0.027
AGCUCCUACAGCUUGCAUAGUAUUUACAAA | 0.331 ± 0.047
UCCUCCUACAGCUUGCAUAGUAUUUAGCUUA | 0.3 ± 0.076
UCCUGGAACAGCUUGCAAGUAUUUAGUUA | 0.142 ± 0.018
UCCUGCUACAGCUUGCAUACUAUUAAGUUA | 0.187 ± 0.021
UCCUGGAUGUGCUUGGUUAGUAUUUAGUUA | 0.0184 ± 0.0063
UCCACCUAGAGCUUGCUUAGUAUUUAGUUA | 0.549 ± 0.044
UCCUGGUACAGCUUGCAUUGUAUUAAGUUA | 0.0832 ± 0.018
UCGACCUACAGUUGCAUAGUAUUUAGUUA | 0.955 ± 0.065
AGGACCUACAGCUUGCAUAGAAAUUAGUUA | 0.254 ± 0.034
UCCUGGUACAGCUAGCAUAGUAUUUAGUUA | 0.733 ± 0.042
UCCUGGAUCAGCUUGCAUUGAAUUUAGUUA | 0.0553 ± 0.0084
UGGACCUACAGCAUGCAUACUAUUUAGUUA | 0.371 ± 0.018
UGGACCUACAGCUUGCAUUGUAUUUAGAUA | 0.305 ± 0.026
AGGACCUUCAGCUUGCAUAGUAUUUAGAAA | 0.522 ± 0.056

Same assay, conditions: guide: L1MC piRNA 5'p-UAACUAAAUACUAUGCAAGCUGUAGGUCCU; auxiliary factor: none (no GTSF1)

Sequence | pre-steady-state target cleavage rate
UCCUGGAACGAGCUUGCAUAGUAUUUAGUUA | 0.0352 ± 0.0079
UGGACCUUCAGCUUGCAUAGUAUUUUCAAA | 0.00347 ± 0.0027
UGGACCUACAGCUUGCAUAGUAUAUACUUA | 0.00955 ± 0.0025
UGGACCUACAGCUUCGCAUAGUAUUUAGUUA | 0.0229 ± 0.0062
UCCUGGUACAGCUUGCAUAGUAUUUAGAAA | 0.00635 ± 0.003
UCCUGCUACUAGCUUGCAUAGUAUUUAGUUA | 0.0546 ± 0.012
AGGACCUACAGCUUGCAUAGAAUUUAGAAA | 0.00817 ± 0.0038
AGGACCAACAGCUUGCAUAGUAUUUUGUUA | 0.0712 ± 0.015
UCCUGGAUGUCCUUGCAUAGUAUUUAAUUA | 0.0052 ± 0.0027
UCCUGGAUGUCCUUGCAUAGUAUUUAAGUUA | 0.00941 ± 0.0028
AGGACCUAGAGCUUGCAUAGUUUUUAGUUA | 0.0238 ± 0.0061
UGGAGCUACAGCUUGCAUAGAAUUUAGUUA | 0.0258 ± 0.0064
UCGACCUACAGCUUGCAUAGUAUAUAGUUA | 0.0387 ± 0.0099
UCCUCCUACAGCUUGCAUAGUAUUUAAGUUA | 0.0323 ± 0.007
UCCUGGAUGUGCUUGCAUAGUAUUUAAGUUA | 0.0278 ± 0.0082
AGGACCUACAGCUUGCAUAGUGAUUUAGUUA | 0.0106 ± 0.0037
UGGACCUACUGCUUGCAUAGUAUUUAGUUA | 0.0611 ± 0.0097
UCCACCUACAGGUUGCAUAGUAUUUUGUUA | 0.0198 ± 0.0029
UCCUGGUUCAGGUUGCAUAGUAUUUAGUUA | 0.0138 ± 0.0041
UCCUGGAACACCUUGCAUACUAUUUAGUUA | 0.00558 ± 0.0024

Sequence | pre-steady-state target cleavage rate
UCCACCUACAAGCUUGCAUAGUAUUUAGUUA | 0.0426 ± 0.0076
UCGACCUACAGCUUGCAUAGUAUUUACAAA | 0.00521 ± 0.0037
UCCUCCUACACCUUGCAAAGUAUUUAGUUA | 0.0328 ± 0.0065
UCCUGGAACAGCUUGCGAUAGUAUUUAGUUA | 0.0033 ± 0.0028
UCCUGCUACACCUUGCAUAGUAUUUAGAAA | 0.00341 ± 0.0027
UCCUGGAUGAGCUUGCAUAGUAUUUAGUUC [g2:g21:cont:t1C] | 0.0311 ± 0.0083
AGCUCCUACAGCUUGCAUAGUAUUUACAAA | 0.00384 ± 0.0021
UCCUCCUACAGCUUGCAUAGUAUUUAGCUUA | 0.00624 ± 0.0037
UCCUGGAACAGCUUGCAAGUAUUUAGUUA | 0.00919 ± 0.004
UCCUGCUACAGCUUGCAUACUAUUAAGUUA | 0.0109 ± 0.0027
UCCUGGAUGUGCUUGGUUAGUAUUUAGUUA | 0.00481 ± 0.0023
UCCACCUAGAGCUUGCUUAGUAUUUAGUUA | 0.0205 ± 0.0044
UCCUGGUACAGCUUGCAUUGUAUUAAGUUA | 0.00901 ± 0.0038
UCGACCUACAGUUGCAUAGUAUUUAGUUA | 0.00747 ± 0.0023
AGGACCUACAGCUUGCAUAGAAAUUAGUUA | 0.00542 ± 0.0028
UCCUGGUACAGCUAGCAUAGUAUUUAGUUA | 0.019 ± 0.0043
UCCUGGAUCAGCUUGCAUUGAAUUUAGUUA | 0.00619 ± 0.0028
UGGACCUACAGCAUGCAUACUAUUUAGUUA | 0.0205 ± 0.0045
UGGACCUACAGCUUGCAUUGUAUUUAGAUA | 0.0127 ± 0.0024
AGGACCUUCAGCUUGCAUAGUAUUUAGAAA | 0.0236 ± 0.0078
